GI50 and TGI data for four compounds are collected here from PubChem BioAssay (NCI).

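48-hour exposure; five concentrations; linearly interpolated endpoints. GI50 = concentration required for 50% inhibition of growth. At the TGI there is no net growth.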

The experiment relates to NCI-H322M lung. The experiment in a line: growth of human tumour cells (NCI), 48 h.

Turning to `C#C[C@]1(O)CC[C@H]2[C@@H]3CC=C4c5sc(Nc6ccc(Cl)cn6)nc5CC[C@]4(C)[C@H]3CC[C@@]21C`, the GI50 is 7.72 µM and the TGI was more than 100 µM.
Regarding `Cc1ccccc1NC(=O)Nc1nc2ccc([N+](=O)[O-])cc2s1`, the GI50 is 2.71 µM and the TGI was determined as 8.53 µM.
As to `O=C(NCc1ncc[nH]1)c1ccc(-c2nc3ccc4[nH]ncc4c3c3c2CCCC3)cc1`, the GI50 was 1.43 µM and the TGI came out at 17.3 µM.
Turning to `C/C(=C(/c1ccc(O)cc1)c1ccc(OCCN(C)C)cc1)c1ccc(Cl)cc1`, the GI50 is 25.8 µM and the TGI was determined as 94.7 µM.
